± gives the standard deviation of the averaged measurements. This is one part of the list.

For the assay, the system named is PfAP2-I AP2 domain 3 (GST-tagged). Description: gcPBM binding intensity (ln(normalized median fluorescence intensity)); higher = stronger DNA binding. The gist of the method:
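GST-tagged P. falciparum DNA-binding domains, expressed in E. coli (about 25 μg on average), were applied for 1 h to an Agilent 4 × 180k array of primer-extended double-stranded 36-bp intergenic genomic probes plus negative controls. The binding buffer was 1× PBS with 1% milk, 0.2 mg/ml BSA, 0.5% salmon testes DNA and 0.03% Triton X-100. Bound protein was detected with Alexa488 anti-GST antibody and scanned at 488 nm. Binding intensity is the highest Masliner-normalised natural-log median intensity across replicate spots of either probe orientation.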
Consider “TTTTTTAAAATATATATAATGAATTTTTTTTTTTTT [CACACA_negctrl_site1577]”, for which the “gcPBM binding intensity (ln)” value is 7.23 ± 0.57.

Regarding “AAAGAAAAAAAAAAAAGTACATAAATATAAAAAGAA [XGTACX_site6753]”, the “gcPBM binding intensity (ln)” value stood at 7.96 ± 0.57.

Take “TTTTATTATTTATATACACACTTGCTGAAATGTTAT [CACACA_site5919]”: the “gcPBM binding intensity (ln)” value was 7.87 ± 0.79.

As for “TATAATAATAATGATAGTACGTATGAGTTCAAAAAA [XGTACX_site608]”, the “gcPBM binding intensity (ln)” value stood at 7.79 ± 0.68.

Take “TATATACAAATATGCTGTACAAAAAAAAAAAAAAAA [XGTACX_site4732]”: the “gcPBM binding intensity (ln)” value came to 8.05 ± 0.53.

In the case of “CGGTATTTTTTAATTTGTACGCATATACAATAATTA [XGTACX_site8603]”, the “gcPBM binding intensity (ln)” value was 7.91 ± 0.52.

On to “GATATGATTACCTTATGGTGTTTTTGATGGATAGTT [CACACA_negctrl_site1504]”, for which the “gcPBM binding intensity (ln)” value was determined as 7.58 ± 0.74.

Consider “AATCTCAGAATATACTGTACTTTAAGAAAAAAAAAA [XGTACX_site110]”, for which the “gcPBM binding intensity (ln)” value was 7.75 ± 0.54.

With “AATATATATTTGTGTACACATTATATATATATATAT [CACACA_site6103]”, the “gcPBM binding intensity (ln)” value stood at 9.42 ± 0.55.

With “AAAATTTAAATAGGAAGTACGTTCACTAAGAAAATA [XGTACX_site6546]”, the “gcPBM binding intensity (ln)” value came out at 7.99 ± 0.69.

Consider “AAATAAAGATATATATATATATATATATATAATTTT [CACACA_negctrl_site30]”, for which the “gcPBM binding intensity (ln)” value stood at 7.97 ± 0.41.

Consider “AAATATTTTGCATACACATGCAAATATTTTTTACAT [TGCATGCA_site554]”, for which the “gcPBM binding intensity (ln)” value came to 9.81 ± 0.88.

As to “AATATAAAAAGGCACACACACAAAAAAAAAAAAAAA [CACACA_site896]”, the “gcPBM binding intensity (ln)” value turned out to be 8.31 ± 0.29.

On to “AAAATGTGCATATTTGCACACTTCAATATATATATA [CACACA_site1791]”, for which the “gcPBM binding intensity (ln)” value worked out at 10.4 ± 0.2.

Regarding “CATAAATCAGCCATAACACACATACCTATATACATA [CACACA_site6324]”, the “gcPBM binding intensity (ln)” value amounted to 7.75 ± 0.57.

As for “TGAAAGAATGTTAATAGTACACACAATTATTATATA [XGTACX_site7936]”, the “gcPBM binding intensity (ln)” value turned out to be 7.75 ± 0.42.

As for “TAAGAACTATTCAGTAGTACCTATATGGATTACTAA [XGTACX_site4278]”, the “gcPBM binding intensity (ln)” value amounted to 7.17 ± 0.54.

Regarding “ATTGATATTGTATAATGTACAGGAAAAAAAAAAAAA [XGTACX_site526]”, the “gcPBM binding intensity (ln)” value was 8.18 ± 0.64.

As for “TGAAAGAACCTGATTACACACATAAGTTATAAATAT [CACACA_site6165]”, the “gcPBM binding intensity (ln)” value was determined as 7.5 ± 0.61.

Consider “TTCTTTATTTTTTCTACACACATTATGTATTCAAAG [CACACA_site3527]”, for which the “gcPBM binding intensity (ln)” value worked out at 8.28 ± 0.85.

Take “TTTATATTTCTTCATCGTACACATAAAAAAAAAAAA [XGTACX_site3244]”: the “gcPBM binding intensity (ln)” value turned out to be 8.25 ± 0.3.

In the case of “ATACTCACGAAACACACACACAATATATATATATAT [CACACA_site4136]”, the “gcPBM binding intensity (ln)” value stood at 9.36 ± 0.27.

Take “GAAAATATTAAATGAAGTACAATATTTATGTTACTT [XGTACX_site8737]”: the “gcPBM binding intensity (ln)” value was determined as 7.61 ± 0.3.

Take TTTTATATTTTAAGAGTGCATTTTATATCTTTTTCT: the “gcPBM binding intensity (ln)” value worked out at 9.62 ± 0.19.

On to “ATAATAACTGATAAATGTACATATAAATTTTATGAT [XGTACX_site195]”, for which the “gcPBM binding intensity (ln)” value is 7.79 ± 0.4.

Take “AGGATATGCGGACACACACACATATATATATATATA [CACACA_site5247]”: the “gcPBM binding intensity (ln)” value is 9.31 ± 0.11.

As for “ATAATTTAAAAACATTGTACATTAATATATATGTAT [XGTACX_site8970]”, the “gcPBM binding intensity (ln)” value was determined as 7.65 ± 0.48.

Turning to “TTTTATTTATAATACTCACACATTTATATTACATAT [CACACA_site6000]”, the “gcPBM binding intensity (ln)” value is 7.75 ± 0.68.

Take “CAAAAGGATGTGGGATGTACATATGAAAAAAAAAAA [XGTACX_site8059]”: the “gcPBM binding intensity (ln)” value was 8.09 ± 0.8.

With “TAAATTTAAAAATCTGCACACATTTAAAAAAAAAAA [CACACA_site2515]”, the “gcPBM binding intensity (ln)” value is 8.59 ± 0.45.

As to “ATTACTAAAAAATATAAACACACATATATTTTACAT [CACACA_site8633]”, the “gcPBM binding intensity (ln)” value came to 7.76 ± 0.52.

On to “GGTCTTTTTTTCAAAAGTACATAAATAAAAAAGGTT [XGTACX_site2894]”, for which the “gcPBM binding intensity (ln)” value came to 8.11 ± 0.62.

Consider “TTGTATGTAAAAAAGTGTACATGAGTGATTATATAA [XGTACX_site8166]”, for which the “gcPBM binding intensity (ln)” value is 8.26 ± 0.42.

In the case of “AATAAAATAATAAAAGCACACAAGAATACACCCAAA [CACACA_site7919]”, the “gcPBM binding intensity (ln)” value stood at 8.78 ± 0.26.

For “TTTAACGAATAAAAATGTACAAATTTATACATTTAT [XGTACX_site2805]”, the “gcPBM binding intensity (ln)” value is 7.53 ± 0.52.

Regarding “CTTTTTTTCTTTCCAAGTACTAAATTCATACAAATT [XGTACX_site2605]”, the “gcPBM binding intensity (ln)” value turned out to be 7.86 ± 0.34.

For the sequence “ATAGGTAAAAAGTATACACACGTTGACACATTCTTT [CACACA_site4794]”, the “gcPBM binding intensity (ln)” value was 7.71 ± 0.61.

With ATTTTAAAAAGGATAGTGCAAATGTTAAAATAGGAC, the “gcPBM binding intensity (ln)” value turned out to be 10.6 ± 0.3.

In the case of “AAATAATACAAGGGCTGTACATAAAAAGGAGTATAT [XGTACX_site839]”, the “gcPBM binding intensity (ln)” value worked out at 8.56 ± 0.77.

For the sequence “GTATATATCCCAAAATGTACATAATTTATTATTTAT [XGTACX_site2842]”, the “gcPBM binding intensity (ln)” value was determined as 7.68 ± 0.57.

With “AGAAAAAAAAAAAGTACACACATATAACATATAGAT [CACACA_site7410]”, the “gcPBM binding intensity (ln)” value worked out at 7.97 ± 0.15.

Consider “ATTTATTTTCTGTGTACACATATGTTGGGTATTTTA [CACACA_site5902]”, for which the “gcPBM binding intensity (ln)” value worked out at 8.29 ± 0.63.

Take “TACAAAAAAATAAATAATAAAAAAAAATATATATAA [XGTACX_negctrl_site344]”: the “gcPBM binding intensity (ln)” value is 7.46 ± 0.6.

Regarding “CAGGTGCACTATATTACACACGCTTCTTTTTTTTTA [CACACA_site2069]”, the “gcPBM binding intensity (ln)” value worked out at 11.7 ± 0.59.

In the case of “TTGATATTATTGTATAAACATAATAGAGATAAAGAG [TGCATGCA_negctrl_site455]”, the “gcPBM binding intensity (ln)” value came to 8.6 ± 0.3.

On to “AACATGTTAACTAAATGTACACACCTATGTTGATGT [XGTACX_site3777]”, for which the “gcPBM binding intensity (ln)” value was 7.83 ± 0.38.

TGAAGGATATATTCCGTGCACATATAAATATATACA: the “gcPBM binding intensity (ln)” value is 11.035 ± 0.007.

For “GGAAAACACAAAAACTGTACATTTATTCAACATATA [XGTACX_site5831]”, the “gcPBM binding intensity (ln)” value was found to be 7.71 ± 0.38.

In the case of “TATATACATATATACACACACATATATATATATATA [CACACA_site2805]”, the “gcPBM binding intensity (ln)” value worked out at 9.26 ± 0.77.

Take “ATTTCTAAATGTTGGTGTACGTTTTTTTATAACCTT [XGTACX_site1752]”: the “gcPBM binding intensity (ln)” value is 8.16 ± 0.44.

For the sequence “AATAAATGGAATGTCACACATATATATATATATATA [CACACA_site4869]”, the “gcPBM binding intensity (ln)” value turned out to be 9.31 ± 0.33.

As to “ATTATTTAAAAAAAATGTACATAATAAATATGAACG [XGTACX_site4010]”, the “gcPBM binding intensity (ln)” value was 7.64 ± 0.26.

Regarding “AAAAAAAAGAAAGAAAGTACAAATTATAAAATGAAC [XGTACX_site860]”, the “gcPBM binding intensity (ln)” value turned out to be 7.78 ± 0.77.

On to “TAAATTAAAAAACACACACACAAAAAAAAAAAAAAA [CACACA_site2263]”, for which the “gcPBM binding intensity (ln)” value came out at 8.16 ± 0.91.

Regarding “AGTGTATGTATATAAACACACATACATATTTATAAC [CACACA_site6777]”, the “gcPBM binding intensity (ln)” value was determined as 7.57 ± 0.62.

As for “CTTAAATTGAAATGTTGTACAAAGTAAAAACAATGA [XGTACX_site2123]”, the “gcPBM binding intensity (ln)” value amounted to 7.78 ± 0.52.

For the sequence “AAAGAATACAAAATTGCACACATATTGTGAAAATGT [CACACA_site9327]”, the “gcPBM binding intensity (ln)” value turned out to be 8.36 ± 0.38.
